Laboratory results from the supplement of paper PMC4466236.
Whole data set: some 33,000 sequences, median “E-score (dimensionless, -0.5 to 0.5)” near -0.058, cut for the highest 2% near 0.35. This is one part of the list.

System: MvaT
Assay: PBM 8-mer E-score (mean of HK and ME arrays) (E-score (dimensionless, -0.5 to 0.5)); higher = stronger relative binding preference; most listed sequences are background and not binding sites
Method: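 Protein binding microarray: GST-tagged full-length MvaT (P. aeruginosa PAO1) bound to two universal double-stranded 60-mer arrays (ME and HK), each with a constant 25-mer primer and a variable 35-mer region covering all 8-mers. The 8-mer E-score (rank-based, range -0.5 to 0.5, >0.45 = specific binding) is the mean of the two arrays.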

Compared with GGATAACC, AAGTTATC is higher in “PBM 8-mer E-score” value: -0.118 for the first, 0.256 for the second.

Going from CCTACTCA to CGTTTCCC, the “PBM 8-mer E-score” value falls from -0.0563 to -0.091.

First: AATGTACC
Second: TGAACTAA
The “PBM 8-mer E-score” value of the first is lower: 0.186 for the first, 0.278 for the second.

First: GAGGCCCA
Second: AGCCCCTA
The “PBM 8-mer E-score” value of the first is higher: -0.232 for the first, -0.331 for the second.

First: GTAGGAGA
Second: AAAGACAG
The “PBM 8-mer E-score” value of the first is lower: -0.127 for the first, -0.0362 for the second.

Compared with CCCAGTAG, GGCATAAA is higher in “PBM 8-mer E-score” value: -0.122 for the first, 0.0713 for the second.

First: ACAGTGAA
Second: GACCTGAC
The “PBM 8-mer E-score” value of the first is higher: -0.0365 for the first, -0.304 for the second.

Compared with AGAGGGCG, ACTATCAA is higher in “PBM 8-mer E-score” value: -0.276 for the first, 0.191 for the second.

Going from CCAGCCGA to CGGAACTC, the “PBM 8-mer E-score” value falls from 0.0177 to -0.0386.

Compared with AATAGACC, GATGTCAC is lower in “PBM 8-mer E-score” value: 0.00124 for the first, -0.11 for the second.

First: ACCGTAAT
Second: ATGAGAAC
The “PBM 8-mer E-score” value of the first is higher: 0.207 for the first, -0.0281 for the second.

Going from ATCATGAC to ACAAGCGG, the “PBM 8-mer E-score” value falls from 0.0406 to -0.0943.

First: CTTTTTAA
Second: CGGCGTCA
The “PBM 8-mer E-score” value of the first is higher: 0.213 for the first, -0.198 for the second.

Compared with CTCTGCAG, AAGATCTT is higher in “PBM 8-mer E-score” value: -0.191 for the first, 0.0451 for the second.

First: CTCGTTTA
Second: CGTTTCCA
The “PBM 8-mer E-score” value of the first is higher: 0.126 for the first, -0.000895 for the second.

Compared with CCCTTGAC, CAACTATG is higher in “PBM 8-mer E-score” value: -0.224 for the first, 0.273 for the second.

First: CAGGACTA
Second: CGATTTCA
The “PBM 8-mer E-score” value of the first is higher: -0.0646 for the first, -0.0753 for the second.

Going from GTAATCGA to AGTGGCTA, the “PBM 8-mer E-score” value falls from 0.0452 to -0.14.

First: ACGAACAC
Second: TGGAAACA
The “PBM 8-mer E-score” value of the first is lower: -0.032 for the first, 0.0669 for the second.

First: GAGATTCA
Second: CCTAAAGA
The “PBM 8-mer E-score” value of the first is lower: -0.0331 for the first, 0.0301 for the second.

First: ATGTAAGC
Second: AGGCCTTA
The “PBM 8-mer E-score” value of the first is higher: 0.0551 for the first, 0.0391 for the second.

First: TATTATCA
Second: CAATGACG
The “PBM 8-mer E-score” value of the first is higher: 0.404 for the first, -0.195 for the second.

First: GGATTTTA
Second: CTACGTAG
The “PBM 8-mer E-score” value of the first is higher: 0.112 for the first, -0.2 for the second.

Going from AAGCGTCT to CATGCTTA, the “PBM 8-mer E-score” value rises from -0.141 to -0.0242.

Compared with TCTAATCA, AAATCCTG is lower in “PBM 8-mer E-score” value: 0.0903 for the first, 0.0887 for the second.

Compared with CACCGTAC, CCATCACC is lower in “PBM 8-mer E-score” value: -0.145 for the first, -0.173 for the second.

First: GGTCGCAA
Second: ATCACTTG
The “PBM 8-mer E-score” value of the first is lower: -0.00194 for the first, 0.0666 for the second.

Compared with GCGGGGGA, ATATAGGA is higher in “PBM 8-mer E-score” value: -0.135 for the first, 0.278 for the second.

Compared with GCCTATCA, CGTATAAA is higher in “PBM 8-mer E-score” value: -0.0719 for the first, 0.209 for the second.

Compared with ATGTGATC, ATGGGTTC is lower in “PBM 8-mer E-score” value: -0.0628 for the first, -0.114 for the second.

First: AGGGTATA
Second: TCAAATAA
The “PBM 8-mer E-score” value of the first is lower: 0.167 for the first, 0.28 for the second.

First: ATTTCTCA
Second: CGGGGTAC
The “PBM 8-mer E-score” value of the first is higher: 0.182 for the first, -0.206 for the second.

Going from CAGGTCGC to ACTGTAGA, the “PBM 8-mer E-score” value rises from -0.173 to 0.0986.

Compared with AAGCTTTA, CAGCGTAC is lower in “PBM 8-mer E-score” value: 0.0937 for the first, -0.225 for the second.

Compared with CTCCTTTC, AATGTCGC is higher in “PBM 8-mer E-score” value: -0.176 for the first, -0.0326 for the second.

Going from GGGTCGAC to CTCCGGCA, the “PBM 8-mer E-score” value falls from -0.124 to -0.336.

Going from GACCCAAC to CCAAGGCA, the “PBM 8-mer E-score” value rises from -0.156 to -0.0594.

First: ACCGTGTC
Second: ACACTTCC
The “PBM 8-mer E-score” value of the first is lower: -0.152 for the first, 0.194 for the second.

Going from CGCCGTAC to GCATCTAC, the “PBM 8-mer E-score” value rises from -0.289 to 0.0552.

First: CTGCTCTC
Second: GACGACCC
The “PBM 8-mer E-score” value of the first is lower: -0.222 for the first, -0.214 for the second.

First: ACTCCGAG
Second: ACTCAATG
The “PBM 8-mer E-score” value of the first is higher: 0.0445 for the first, -0.00467 for the second.

First: ACGATTCT
Second: GTTTTATA
The “PBM 8-mer E-score” value of the first is lower: -0.176 for the first, 0.243 for the second.

Going from ACCTCGGG to GAGGGTAA, the “PBM 8-mer E-score” value rises from -0.144 to 0.0543.

Going from AACTCCCT to CATTTATC, the “PBM 8-mer E-score” value rises from -0.0712 to 0.241.

First: ACAAAACC
Second: GACAGATC
The “PBM 8-mer E-score” value of the first is higher: 0.0844 for the first, -0.173 for the second.

Compared with ACAGTTCT, CGAGCAAG is lower in “PBM 8-mer E-score” value: 0.112 for the first, -0.218 for the second.

Compared with TCTGCGAA, GCGGTGAC is lower in “PBM 8-mer E-score” value: 0.0169 for the first, -0.202 for the second.

Going from TAAGGCCA to CTACGCGC, the “PBM 8-mer E-score” value falls from 0.00955 to -0.132.

Compared with GCGATTGA, ACGTGTCA is lower in “PBM 8-mer E-score” value: -0.0741 for the first, -0.104 for the second.

Compared with CCGTGTAA, CTACTCAA is lower in “PBM 8-mer E-score” value: 0.0402 for the first, -0.156 for the second.

Going from AAGGCACC to ACTCAGTA, the “PBM 8-mer E-score” value rises from -0.136 to 0.118.

First: GACTCAGC
Second: CCACAAGC
The “PBM 8-mer E-score” value of the first is lower: -0.234 for the first, -0.204 for the second.

First: CAACGCCG
Second: AACAGAAG
The “PBM 8-mer E-score” value of the first is lower: -0.236 for the first, 0.102 for the second.

First: GCGGGGCA
Second: CAGCTTTC
The “PBM 8-mer E-score” value of the first is lower: -0.178 for the first, -0.151 for the second.

In the case of AGTTAAAT, the “PBM 8-mer E-score” value is reported as 0.383.
